For 52 sequences, binding signal (log fluorescence intensity) results are on record in PMC6602471.

The other results are listed elsewhere or left out. At the low end of the ranking the order means little.

The assay concerns the target T1, ELK1 (UniProt P19419).
T1 sequence: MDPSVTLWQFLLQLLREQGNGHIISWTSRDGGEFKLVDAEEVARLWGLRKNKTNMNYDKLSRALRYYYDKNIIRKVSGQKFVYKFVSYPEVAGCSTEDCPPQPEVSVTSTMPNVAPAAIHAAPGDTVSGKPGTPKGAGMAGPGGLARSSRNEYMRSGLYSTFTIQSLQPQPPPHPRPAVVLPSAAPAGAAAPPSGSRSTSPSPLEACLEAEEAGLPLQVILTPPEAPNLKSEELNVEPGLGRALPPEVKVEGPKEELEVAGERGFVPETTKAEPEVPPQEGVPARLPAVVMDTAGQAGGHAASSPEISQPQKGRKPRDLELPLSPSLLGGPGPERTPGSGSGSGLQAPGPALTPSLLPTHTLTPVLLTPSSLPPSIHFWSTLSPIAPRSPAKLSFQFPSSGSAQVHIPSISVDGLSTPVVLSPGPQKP
The experiment in a line: custom PBM. The settings on record: custom protein-binding microarray; buffer, salt, pH and temperature not stated; high values mean tight binding; double strand, one strand shown.
With “TACTGACTTATATATGCGAATGCACATGAATTGACCGTCTTGATTCGCTTGACGCTGCTG”, the binding signal (log fluorescence intensity) was 8.9. The same measure for “TCCGGCTATCAGCTCCACCCACTTCAGGCCTTGTAGGTCTTGATTCGCTTGACGCTGCTG”: 9.1.

Take “CACAATTTTTACAGTAATGTAGCACGCGTAACCCCTGTCTTGATTCGCTTGACGCTGCTG”: the binding signal (log fluorescence intensity) amounted to 8.95. The same measure for “TGTCGGGTAAGGGAATGTAGATCACATGAATGAAAAGTCTTGATTCGCTTGACGCTGCTG”: 8.86. “CTGGGACTTGACCCAACTCTGCCACGTGGGTCGCTTGTCTTGATTCGCTTGACGCTGCTG”: the binding signal (log fluorescence intensity) amounted to 8.88. The same measure for “TGTCGGGTAAGGGAATGTATATCACGTGAATGAAAAGTCTTGATTCGCTTGACGCTGCTG”: 8.72; for “CACAATTTTTATAGTAATGTAGCACGCGTAACTCCTGTCTTGATTCGCTTGACGCTGCTG”: 8.86.

For “CTGGGACCTGACCCAACTCTGCCACGTGGGTCGTTTGTCTTGATTCGCTTGACGCTGCTG”, the binding signal (log fluorescence intensity) was 8.72.

“GATTAATTTCTGCCCTTATTCGCAGGTGCCATAACAGTCTTGATTCGCTTGACGCTGCTG”: the binding signal (log fluorescence intensity) is 8.99. The same measure for “GCTGCTGCGGTGCATACCCCACCGGATGTGACCCTGGTCTTGATTCGCTTGACGCTGCTG”: 10.1; for “TACTGACTTATATATGCGAATGCTCATGAATAGACCGTCTTGATTCGCTTGACGCTGCTG”: 8.85; for “GGAAAAAGGCACAGGGTAACACCGGAAGTGGGCTTAGTCTTGATTCGCTTGACGCTGCTG”: 11. The same measure for “GTGTATGGGATCCCATCCAACACACGTGTTAAAATGGTCTTGATTCGCTTGACGCTGCTG”: 9.12; for “CTGGGACTTGACCCAACTCTGCCACGTGGGACGTTTGTCTTGATTCGCTTGACGCTGCTG”: 8.84. The same measure for “CGGAAGTGTCGTAAACGTCGGATATCCGGTGCTTCTGTCTTGATTCGCTTGACGCTGCTG”: 12.5; for “TACTGACTTATATAGGCGAATGCACATGAATAGACCGTCTTGATTCGCTTGACGCTGCTG”: 8.82. In the case of “TGTCGGGTAAGGGAATGTCGATCACGTGAATGAAAAGTCTTGATTCGCTTGACGCTGCTG”, the binding signal (log fluorescence intensity) came to 8.77. On to “TCCGGCTACGAGCTCCACCCACTTCAGGCCTTGTAGGTCTTGATTCGCTTGACGCTGCTG”, for which the binding signal (log fluorescence intensity) amounted to 8.91. For “GCTGCTGCAGTGCATACCCCACCGGATGTGACCCCGGTCTTGATTCGCTTGACGCTGCTG”, the binding signal (log fluorescence intensity) turned out to be 10.1. With “TAAAGGGAAGACGGTTGTGGTAGTTCCGGGAATTAAGTCTTGATTCGCTTGACGCTGCTG”, the binding signal (log fluorescence intensity) is 11.2. “CGGAAGTGTCGTAAAAGTCGGATATCCGGTTCTTCTGTCTTGATTCGCTTGACGCTGCTG”: the binding signal (log fluorescence intensity) was 12.5. The same measure for “CAGAATAGGACTTCTTCCCTGAAGCAATTGATAACCGTCTTGATTCGCTTGACGCTGCTG”: 9.06; for “CTGGGAATTGACCCAACTCTGCCACGTGGGTCGTTTGTCTTGATTCGCTTGACGCTGCTG”: 9. Take “CTGTATAGGATCCCATCCAACACACGTGTTAAAATGGTCTTGATTCGCTTGACGCTGCTG”: the binding signal (log fluorescence intensity) came out at 8.9. For the sequence “GATTAATTTCTGCCCTTGTTCGCACGTGCCATAACAGTCTTGATTCGCTTGACGCTGCTG”, the binding signal (log fluorescence intensity) amounted to 9.06. Consider “CAGCATAGGACTTGTTCCCTGAAGCAATTGATAACCGTCTTGATTCGCTTGACGCTGCTG”, for which the binding signal (log fluorescence intensity) came out at 8.97.

For the sequence “TCCGGCGACCAGCTCCACCCACTTCAGGCCTTGTAGGTCTTGATTCGCTTGACGCTGCTG”, the binding signal (log fluorescence intensity) was 9.03. The same measure for “TCCGGCTACCACCTCCACCCACTTCAGGCCTTGTAGGTCTTGATTCGCTTGACGCTGCTG”: 8.92.

For the sequence “GCTGCTGCGGTGCATACCCCACCGGAGGTGACCCCGGTCTTGATTCGCTTGACGCTGCTG”, the binding signal (log fluorescence intensity) is 9.01. In the case of “GTTTAATTTCTGCCCTTATTCGCACGTGCCATAACAGTCTTGATTCGCTTGACGCTGCTG”, the binding signal (log fluorescence intensity) was 8.91. The same measure for “TGGAAGTGTCGTAAACGTCGGATATCCGGTTCTTCTGTCTTGATTCGCTTGACGCTGCTG”: 12.5; for “TCCGGCTACCAGCTCCACCCACTTCAGGCCTAGTAGGTCTTGATTCGCTTGACGCTGCTG”: 8.96.

As for “TATTAATTTCTGCCCTTATTCGCACGTGCCATAACAGTCTTGATTCGCTTGACGCTGCTG”, the binding signal (log fluorescence intensity) amounted to 8.91. The same measure for “TACTGACTTATATATGCGAATACACATGAATAGACCGTCTTGATTCGCTTGACGCTGCTG”: 8.85; for “TGTCGGGTAAGGGAATGTAGATCACGCGAATGAAAAGTCTTGATTCGCTTGACGCTGCTG”: 8.89; for “TGTCGGGTAAGGGACTGTAGATCACGTGAATGAAAAGTCTTGATTCGCTTGACGCTGCTG”: 8.79.

With “GTGTATAGGATCCCATCCAACACACGTGTCAAAATGGTCTTGATTCGCTTGACGCTGCTG”, the binding signal (log fluorescence intensity) turned out to be 8.93.

As for “GTGTAGAGGATCCCATCCAACACACGTGTTAAAATGGTCTTGATTCGCTTGACGCTGCTG”, the binding signal (log fluorescence intensity) stood at 8.89. The same measure for “TAAAGGGAAGACGGTGGTGGTAGTTCCGGGTATTAAGTCTTGATTCGCTTGACGCTGCTG”: 11.1; for “CACAATTTTTACAGTAAAGTAGCACGCGTAACTCCTGTCTTGATTCGCTTGACGCTGCTG”: 8.77. For “TCCGGCTACCAGCTCCACCCACATCAGGCCTTGTAGGTCTTGATTCGCTTGACGCTGCTG”, the binding signal (log fluorescence intensity) amounted to 8.93. As to “TAAAGGGAACACGGTTGTGGTAGTTCCGGGTATTAAGTCTTGATTCGCTTGACGCTGCTG”, the binding signal (log fluorescence intensity) was 11.2.

Regarding “CTGGGACTTGACCCAACTCTGCCACGTGGGTCGTTCGTCTTGATTCGCTTGACGCTGCTG”, the binding signal (log fluorescence intensity) is 8.99.

Take “CGGAAGTATCGTAAACGTCGGATATCCGGTTCTTCTGTCTTGATTCGCTTGACGCTGCTG”: the binding signal (log fluorescence intensity) came to 12. As to “CAGCATAGGACTTCTTCCCTGAATCAATTGATAACCGTCTTGATTCGCTTGACGCTGCTG”, the binding signal (log fluorescence intensity) turned out to be 8.76.

On to “GCTGCTGCGGTGCATACCCCTCCGGATGTGACCCCGGTCTTGATTCGCTTGACGCTGCTG”, for which the binding signal (log fluorescence intensity) is 9.59.

For the sequence “GTAAAAAGGCCCAGGGTAACACCGGAAGTGGGCTTAGTCTTGATTCGCTTGACGCTGCTG”, the binding signal (log fluorescence intensity) is 10.9. The same measure for “GATTAATTTCTGCCCTAATTCGCACGTGCCATAACAGTCTTGATTCGCTTGACGCTGCTG”: 8.74; for “GATTAATTTCTGCCTTTATTCGCACGTGCCATAACAGTCTTGATTCGCTTGACGCTGCTG”: 8.9; for “GTGTATAGGATCCGATCCAACACACGTGTTAAAATGGTCTTGATTCGCTTGACGCTGCTG”: 9.83. The same measure for “TCCGGCTACCAGCTCCACCCAATTCAGGCCTTGTAGGTCTTGATTCGCTTGACGCTGCTG”: 8.93; for “GGAAAAAGGCCCAGGGTGACACCGGAAGTGGGCTTAGTCTTGATTCGCTTGACGCTGCTG”: 10.9.
